Data on 22 molecules can be found in publication PMC12136788.

The other results are listed elsewhere or left out.

The labels stand for the following.
T1: UNK ZnF1-3 (human, UniProt Q9C0B0 31-174)
T1 sequence: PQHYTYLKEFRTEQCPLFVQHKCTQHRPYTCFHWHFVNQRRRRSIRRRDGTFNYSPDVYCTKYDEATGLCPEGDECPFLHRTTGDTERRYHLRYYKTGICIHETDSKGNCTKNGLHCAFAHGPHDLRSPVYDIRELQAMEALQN

B1: chr17:7478442:7478443:+_ENSG00000161960_ENST00000293831|hu_hu|FALSE|FALSE (ssRNA)
RNA: GGGAGUUCUACAGUCCGACGAUCCGAUAUGGCAAAUGUGGCCGUUUUCCCAGUCCCAGAUUGGGCUUGAGCAAUCACAUCAUAACCCUUGAUACAAGGUAGAAUGGCUCGCUGCUGGAUGGCAGAGGGCUUCUCAAAACCAUACAACAGAGGAUUGAGCAUCA
B2: chr2:198365819:198365820:+_ENSG00000115541_ENST00000409468|hu_hu|motif|central (ssRNA)
RNA: GGGAGUUCUACAGUCCGACGAUCAGUUUCAGCAGCACUCCUUUCAACCAAUACUCGGUCAAAGAGUGGAAGAAACUUUCGGAACGCUUGUCCUGCCAUUACUCCCUCCGCCUCAGACUCGUACUCUGCUCUAGUGUAGCGCCGCAACAGAGGAUUGAGCAUCA
B3: 125316601_125316721_4730_CDS_ENSMUSG00000030655_ENSMUST00000032891|mouse|control|control (ssRNA)
RNA: GGGAGUUCUACAGUCCGACGAUCAAGCUCAGGGCCCCAUUUUUCAUCCACUUGGCCUUGAGUGGACAGUUUUUUAAAAUGCUGGACUAAGUCCUGGGCAGUGGUUGUCUUUCCCAGCUGAACCUCACUGCACUGUGCCAGCAGCAACAGAGGAUUGAGCAUCA
B4: chr11:18503389:18503390:-_ENSG00000074319_ENST00000251968|hu_hu|hu_hu_hu_mus_True|38_108 (ssRNA)
RNA: GGGAGUUCUACAGUCCGACGAUCAUUUUCCAUUUUUUCCAGAGCAGAACUUAGUUCUUCAUCCUUCUUUUUCAAAAGUUCUAUGUUUUUAUCAACUUCGGCUACUUCUUGAUCUAAGCGGGUGACCAUCUCUUCCAGUUUCUGCAACAGAGGAUUGAGCAUCA
B5: chrX:20248820:20248821:+_ENSMUSG00000001924_ENSMUST00000001989|mus_mus|mus_mus_mus_hu_True|68_108 (ssRNA)
RNA: GGGAGUUCUACAGUCCGACGAUCGGCAAAGUCAGUCACCACAAAGUCAGGUUCUGCCAGUGAGGCCGGCAAGGAUUUAAAGCUAAUCUUCUUAGGUACUUUGACCUGACUGACGAUGCCUCCACGGAUGUAGUCGGAGAAGUUCAACAGAGGAUUGAGCAUCA
B6: chr5:24309477:24309478:-_ENSMUSG00000028945_ENSMUST00000030787|mus_hu|FALSE|FALSE (ssRNA)
RNA: GGGAGUUCUACAGUCCGACGAUCCGGGCAGUUUGCUUCUUCAGGUAGAAUAUAUUCCCAGUGUCCUCAGGCUUUGCAGCAGAAUCACAUCACCGAGCAUGAAGACUUGCCUUGUGAAGCUGCCCCGUCCAUUUUUUCUGCCUCCAACAGAGGAUUGAGCAUCA
B7: 130313498_130313618_915_CDS_ENSMUSG00000052707_ENSMUST00000094053|mouse|control|control (ssRNA)
RNA: GGGAGUUCUACAGUCCGACGAUCCCCACUCCCUACAGGCCCUUUUAGGGCAAGUCCAUUGUUUUCUAAUACUGGCCAGGCACCAUGGUUGCUAGCUGAAUUCAAAGUGCUUGGAUUUAACCCUCCAUUUGAUGAAGAACUUACCAACAGAGGAUUGAGCAUCA
B8: 63468907_63470776_12739_CDS_ENSMUSG00000030451_ENSMUST00000076226|mouse|control|control (ssRNA)
RNA: GGGAGUUCUACAGUCCGACGAUCAAACUGAGAUCCACAUUCCACUUUAACUACUCCAAGGCCAGUGAGAGAAUCAAUCUUCAUGGGCACUUUGCAACCAUCACUGCCUCCUCUGCCAAGCUUGCCAUAGUCUCCAUCUCCCCACAACAGAGGAUUGAGCAUCA
B9: chr3:148802587:148802588:-_ENSG00000071794_ENST00000310053|hu_mus|hu_hu_hu_mus_False|1_78 (ssRNA)
RNA: GGGAGUUCUACAGUCCGACGAUCUCCAACAACUUGUCCUCUCAUAGUUCCAAAUAAAACGGAAUCUUGCUCUUCAUCACUCGUUAGGAAGUCAUCUGGAGGAAUAAUGUCUUGGAAUUCAAAAUGUGGCAAGAAAGUUGGAUACAACAGAGGAUUGAGCAUCA
B10: 101383963_101384083_1988_CDS_ENSG00000066422_ENST00000312938|human|control|control (ssRNA)
RNA: GGGAGUUCUACAGUCCGACGAUCUGCAACUAGAUUUUCCUGAUCUUUUAAAGGUUGGUCAACUUUCUGCCUAUGUUUUGGAAUGUCUUCGGCACAAAUAUCCUCAGCUGAUAUAUCAUUUCCCAUACCACUAUCCUCUGGCGACAACAGAGGAUUGAGCAUCA
B11: 213161987_213162107_1344_3pUTR_ENSG00000143494_ENST00000366968|human|control|control (ssRNA)
RNA: GGGAGUUCUACAGUCCGACGAUCUGCCUUUUAGUGAAUUUUUUAAAGCUAAUGGUUACCACCCACUCAGAUUCUAUUUCCAGGUGAAUCCUUAAAAAUAAAAUUCACAAGUUCUUAAUAAAUAGUUGCAGUUCCUCCUGAAGACAACAGAGGAUUGAGCAUCA
B12: 152657560_152657680_3021_3pUTR_ENSG00000162980_ENST00000295087|human|control|control (ssRNA)
RNA: GGGAGUUCUACAGUCCGACGAUCUAUAAAUUUAUUUUUUUCCCAACUAUAAUUUUGGUUUUAUGUACAAGUACACAAGUACCACCUUAUUUUUAAUGUUUACCUUGAAGGGUAGAAAACAAAAUCAUGUUUUAUAAAUGUGGUCAACAGAGGAUUGAGCAUCA
B13: chr5:21408736:21408737:-_ENSMUSG00000042453_ENSMUST00000161356|mus_hu|mus_mus_mus_hu_False|28_58 (ssRNA)
RNA: GGGAGUUCUACAGUCCGACGAUCGUUGACAGAGUUGUAGAUGGUGGCUUCAUGGAACUGGAAAGGGGAGCAGCCAAUGCUAUUGGAAGAGGAAGGAAGGCACUGGGUCUGCACGAGCUGCCAGGAAUCCGAUCUUGCAUCCUUCAACAGAGGAUUGAGCAUCA
B14: chr12:54651456:54651457:-_ENSG00000094916_ENST00000209875|hu_mus|FALSE|FALSE (ssRNA)
RNA: GGGAGUUCUACAGUCCGACGAUCGGCUGUCCUCUUGGUCUUCUUUCCCAUGUCGUGUGCCUGUUGAUCCACCUGAAGGAGUAUGGCCACCAGGUUCCCAAGAUCUAAAGUGAUCACUCACGCUAAGGCCUGCACGGUUCCUCUCAACAGAGGAUUGAGCAUCA
B15: 52703668_52703788_811_CDS_ENSG00000157077_ENST00000287727|human|control|control (ssRNA)
RNA: GGGAGUUCUACAGUCCGACGAUCUGAAGUAGGACACAGAUGGUUAACAGAUCUCCCCUCUGUUUUCGGUCUAUUCAAUGGAUCCAUUUGUUUCUCUGAAUUCAUAUCUUUUUCAGUGGACUCAUUUAUACUAAAACUAAAUUGCAACAGAGGAUUGAGCAUCA
B16: 141359452_141359572_4311_3pUTR_ENSG00000257093_ENST00000536163|human|control|control (ssRNA)
RNA: GGGAGUUCUACAGUCCGACGAUCAACUGGCACAUAGUUCAUUUCACAGUGUGGCAUGAGAUCAGGCUGACAGCUUCACAGGAGAACUAGGCCUGCUCAGGCAGGCGAGGGCUGAGGCCCGGCAGGAGAUGGUGGCAGAAGGUGCAACAGAGGAUUGAGCAUCA
B17: chr11:87793186:87793187:-_ENSMUSG00000020483_ENSMUST00000020775|mus_mus|motif|central (ssRNA)
RNA: GGGAGUUCUACAGUCCGACGAUCCCAGAGUCUGGGAGGGCAGGGAAACACAGAUCUGGACAUUCAUAAGAAAAAUAAAACCGGAAAUCAAACAUUCAAUCCUGUACCCAAUAACGGUUUGAACAGGGAACUCAGUCCCCACCACAACAGAGGAUUGAGCAUCA
B18: chr14:31074762:31074763:+_ENSG00000092140_ENST00000206595|hu_mus|motif|central (ssRNA)
RNA: GGGAGUUCUACAGUCCGACGAUCCCACACAUUGGCUUUGUUGAUGUAUAAUGUCUUAGUUUUCUUUUUAAUUUGGAAUCCGGACUCGGUCAAUAUUGUUGAAAUGUCUCUCCUAAAUUUGCUGCCUUGCCUCAGUAGUUCUUUCAACAGAGGAUUGAGCAUCA
B19: chr17:30356047:30356048:-_ENSMUSG00000062202_ENSMUST00000168787|mus_mus|FALSE|FALSE (ssRNA)
RNA: GGGAGUUCUACAGUCCGACGAUCUAUUGCUUGCUAGAGACACUGGCAACUCCAGGCUGGAUGCUGCCCCACACACAAUAGCUACACGCUGGCUACAUCCAUGGAAACCUCCCUACCAAAGGCAGCCACACCACACAGCAAAAUCAACAGAGGAUUGAGCAUCA
B20: chr5:110835399:110835400:-_ENSG00000164211_ENST00000296632|hu_hu|motif|central (ssRNA)
RNA: GGGAGUUCUACAGUCCGACGAUCUGAGAGCCUGUCUCAAAAUUUAAAAAAAAAAAAGUGAAAAUGCCCUCUCUUAGAUAGCGGUUUACUUUAGGAAUAAAACCAAACAUUGUACUAGUGAACCAAAAACAUUUCAAAUUUUUCCAACAGAGGAUUGAGCAUCA
B21: chr5:74677807:74677808:-_ENSG00000113163_ENST00000380494|hu_hu|motif|central (ssRNA)
RNA: GGGAGUUCUACAGUCCGACGAUCACGGACACAUCGGUUGUUUAGAGGAGCACUGUCAUGAUCCACAGAAAAAUUACAAACGGUCCAAGUUUCAGGGUCAUUUUCAGUCAAGGCUGGUAUCUUUCGAAUGACAGAAAGAUAUAACAACAGAGGAUUGAGCAUCA
B22: chr1:127300101:127300102:-_ENSMUSG00000026341_ENSMUST00000027579|perfect_dup|motif|central (ssRNA)
RNA: GGGAGUUCUACAGUCCGACGAUCAGUAUACUGUUUAAUCCAUUUUGACCCAUCUGUAUCAUACUUGUUAAAUUCUUUUACGGAAUCUGGGCAGACAUAACUAUAGCGCUCCUUUACUGCCUUAGCAGUUUCCAAGGAUUGUUCCAACAGAGGAUUGAGCAUCA

This experiment has as its target T1, UNK ZnF1-3. Put plainly: nsRBNS (natural sequence RNA bind-n-seq); RBNS binding buffer (assumed for nsRBNS): 25 mM Tris pH 7.5, 150 mM KCl, 3 mM MgCl2, 0.01% Triton X-100, 500 ug/ml BSA, 20 U/ml SUPERase-In, 4 C; UNK is unkempt and MSI1 is Musashi-1; names of the RNAs are library labels; protein concentration not given here; high values mean tight binding.
Turning to B1, the binding signal came out at 0.962 enrichment R.
In the case of B2 it was 0.868 enrichment R; in that of B3, 0.614 enrichment R; in that of B4, 0.385 enrichment R.
Regarding B5, the binding signal stood at 0.743 enrichment R.
In the case of B6 it was 0.882 enrichment R.
The same measure for B7: 0.894 enrichment R.
The same measure for B8: 1.18 enrichment R; for B9: 1.12 enrichment R; for B10: 0.804 enrichment R.
With B11, the binding signal came to 1.09 enrichment R.
In the case of B12 it was 0.977 enrichment R; in that of B13, 1.59 enrichment R; in that of B14, 0.825 enrichment R.
In the case of B15 it was 0.548 enrichment R; in that of B16, 1.94 enrichment R; in that of B17, 1.94 enrichment R.
B18 gave a binding signal of 0.851 enrichment R.
In the case of B19 it was 1.2 enrichment R.
For B20, the binding signal amounted to 1.93 enrichment R.
In the case of B21 it was 1.03 enrichment R; in that of B22, 0.435 enrichment R.
